Hit rate of the full screen: of about 220,000 compounds, about 16,000 (7.3%) were called active. Inconclusive means that the source gave no clear call. Such entries were picked first, then a sample of the others. Calls come from the whole dose curve; as a rule, active = well fitted inhibition curve with a large enough effect (not every such curve was filed as active); inconclusive = small, poorly fitted or top-dose-only effect, or another doubt; inactive = no such curve, though single readings can be large or run the other way. Where the call is inconclusive, the potency comes from a doubtful curve fit.
What follows are molecules tested against Aldehyde dehydrogenase 1A1 (Homo sapiens) (UniProt P00352) (assay: qHTS Assay for Inhibitors of Aldehyde Dehydrogenase 1 (ALDH1A1)). Conditions: Purified ALDH1A1, NADH fluorescence, propionaldehyde substrate; series mostly up to 75.3 µM.
Potency is the fitted concentration of half-maximal effect; tags give direction and shape of the fitted curve.
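Throughout, for activity, negative = inhibition: plate controls were no enzyme wells and a reference inhibitor.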

Chain of UniProt P00352 (P00352 whole entry, looked up): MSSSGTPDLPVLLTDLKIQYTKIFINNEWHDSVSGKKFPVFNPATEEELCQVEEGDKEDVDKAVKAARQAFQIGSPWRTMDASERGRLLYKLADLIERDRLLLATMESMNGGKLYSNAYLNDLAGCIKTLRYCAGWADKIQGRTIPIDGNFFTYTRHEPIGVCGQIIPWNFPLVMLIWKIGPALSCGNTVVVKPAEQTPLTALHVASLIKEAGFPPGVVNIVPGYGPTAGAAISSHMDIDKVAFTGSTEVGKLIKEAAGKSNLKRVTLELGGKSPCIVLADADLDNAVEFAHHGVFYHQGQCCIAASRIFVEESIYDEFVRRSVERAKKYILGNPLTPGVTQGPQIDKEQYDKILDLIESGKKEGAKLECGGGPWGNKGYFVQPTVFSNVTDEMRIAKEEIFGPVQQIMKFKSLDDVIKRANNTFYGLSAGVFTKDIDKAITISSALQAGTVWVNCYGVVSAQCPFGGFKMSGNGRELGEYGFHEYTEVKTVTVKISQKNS

Potency, active:
Cn1cnnc1SCC(=O)Nc1ccc2nc(SCc3ccccc3F)sc2c1 12.6 µM
COc1ccc(O[C@H]2C=C[C@@H](c3ccccc3)O[C@@H]2COC(=O)CC/C(C)=N/OC[C@@H](O)COCc2ccco2)cc1 10 µM
O=C(CCl)Nc1ccc(Oc2cnc3ccccc3n2)cc1 0.112 µM
CCCC[C@@H]1C[C@H]1C(NC(=O)c1ccco1)c1ccc(C(=O)OC)cc1 (stereo not given in full) 22.4 µM
CCCCOc1ccc(CN2CCC(O)CC2)cc1 31.6 µM
C=CCn1c(SCC(=O)c2cc(C)n(CCOC)c2C)nc2sc(C)c(C)c2c1=O 25.1 µM

Potency, inconclusive:
CCOc1cc(S(=O)(=O)N(Cc2ccccc2)Cc2ccccc2)c(OCC)cc1-n1cnnn1 28.2 µM [inhibitor, partial curve]
CCN1C(=O)S/C(=C/c2c(OCc3ccc(C(=O)O)cc3)ccc3ccccc23)C1=O 39.8 µM [inhibitor, single point]
COc1ccc(NC(=O)CSc2cc(C(=O)c3nccn3C)c3ccccc3n2)cc1 18.9 µM [inhibitor, partial curve]
COC(=O)c1ccc(C(=O)OC)c(NC(=O)CCC(=O)O)c1 39.8 µM [inhibitor, single point]
CC(C)(C)c1nn(-c2ccccc2)c2[nH]c(=O)c(CNCc3ccc4c(c3)OCO4)cc12 31.6 µM [inhibitor, single point]
CCCC(=O)NC(=S)N1CCN(c2ccc([N+](=O)[O-])cc2)CC1 22.4 µM [inhibitor, single point]
CCN(CC)c1ccc(/C=N/NC(=O)CN2CCCc3ccccc32)cc1 31.6 µM [inhibitor, single point]
Cc1ccc(N2C(=N)SCC2=O)cc1Cl 28.2 µM [inhibitor, partial curve]
COc1ccccc1CN(Cc1nc2ccccc2c(=O)[nH]1)C(=O)Nc1cccc(C)c1 28.2 µM [inhibitor, single point]
Cc1cc(C)n2nc3nc(N4CCCC4)nc(-c4ccccc4)c3c2n1 25.1 µM [inhibitor, partial curve]
Clc1ccc(-c2nnc(-c3ccccc3)nc2N2CCSCC2)cc1 25.1 µM [inhibitor, single point]
CCOC(=O)Cn1cc(C=O)c2ccccc21 22.4 µM [inhibitor, partial curve]
CCOc1ccc(-n2nnc3c(=O)n(CC(=O)N4CCCc5ccccc54)cnc32)cc1 44.7 µM [inhibitor, single point]
COc1cccc2[nH]c3c(N4CCC(C)CC4)ncnc3c12 25.1 µM [inhibitor, partial curve]
CC(=O)c1c(C)[nH]c(C(=O)COC(=O)CCSc2ccccc2)c1C 7.94 µM [inhibitor, partial curve, poor fit]
CCCOc1ccc(-c2nc(C#N)c(N3CCc4ccccc4C3)o2)cc1 15.8 µM [inhibitor, partial curve]
CCOC(=O)c1nn(-c2ccc3c(c2)CCN3C(C)=O)cc1O 25.1 µM [inhibitor, partial curve]
COC(=O)c1ccccc1NC(=O)C(=O)NCC1CCCO1 (stereo not given) 39.8 µM [inhibitor, single point]
O=C(CCNC(=O)c1ccccc1Cl)Nc1nc(-c2ccc3ccccc3c2)cs1 35.5 µM [inhibitor, single point]
O=C(O)CSCC(=O)Nc1cc(C(F)(F)F)ccc1Cl 39.8 µM [inhibitor, single point]
COc1ccc2[nH]c(=O)c(NC(N)=S)nc2c1 39.8 µM [inhibitor, single point]
Cc1cc(C)c2nc(/N=C(\N)NC(=O)Nc3ccccc3)nc(C)c2c1 39.8 µM [inhibitor, single point]
Cc1nnc(NC(=O)COc2ccc3c(C)cc(=O)oc3c2)s1 31.6 µM [inhibitor, partial curve]
CCOC(=O)N1CCN(C(=O)C2CCCN(c3nc4ccc(OCC)cc4s3)C2)CC1 (stereo not given) 39.8 µM [inhibitor, single point]
CCOC(=O)Nc1ccccc1C(=O)N1CCOCC1 17.8 µM [inhibitor, single point]
O=[N+]([O-])c1ccc(N2CCN(CCOCCO)CC2)c([N+](=O)[O-])c1 39.8 µM [inhibitor, single point]
O=C1C2=C(SCCS2)C(=O)N1c1ccccc1 14.1 µM [inhibitor, partial curve]

Potency, inactive:
COc1cnc(-c2ccccn2)nc1Sc1c(Cl)cccc1Cl
O=C(c1cccnc1)N(Cc1ccccc1)c1ccccc1
Cc1ccc(NS(=O)(=O)c2cn(C)cn2)cc1
CC(C)N(Cc1nc(COc2ccccc2)no1)Cc1nccn1C
Cc1cc(C)c(NC(=O)C2CCCCN2C)c(C)c1 (stereo not given)
COc1ccccc1-c1c(C)oc2cc(OCC(=O)OCc3ccccc3)ccc2c1=O
CC1=CCC2C(=O)N(c3ccccc3OC(=O)c3ccccc3F)C(=O)C2C1 (stereo not given)
CCCCN(CC)CCCNC(=S)Nc1ccc2nc(N3CCN(C)CC3)cc(C)c2c1
COc1ccc(C(c2nnnn2CCc2ccccc2)N2CCN(C)CC2)cc1OC (stereo not given)
NCC1O[C@@H](OC2C(N)CC(N)C(O)C2O[C@@H]2OC(CO)C(O)C2O)C(N)C(O)C1O (stereo not given in full)
COc1ccccc1NS(=O)(=O)c1cc(C(=O)O)ccc1F

activity, negative = inhibition, inactive:
CC(C)=CCC/C(C)=C/CO/N=C1/C[C@@H](O)[C@@H](O)[C@@H]2[C@H]3C(=O)N(c4ccc(F)cc4F)C(=O)[C@@H]3CC[C@@H]12 -3.5% [at 13.5 µM]
